# From PubChem BioAssay AID1479 (National Center for Advancing Translational Sciences (NCATS), 2009)
# Several values for one entry are separate records, joined by “and”; a condition that tells them apart may be missing. Identical values can stand only once. Screen size: about 280,000 compounds; about 820 (0.29%) were called active. Inconclusive means that the source gave no clear call. Such entries were picked first, then a sample of the others. Calls come from the whole dose curve; as a rule, active = well fitted curve in either direction with a large enough effect; inconclusive = small, poorly fitted or top-dose-only effect; inactive = flat fitted curve, though single readings scatter. A potency beside an inconclusive call is a rough fit, not a confirmed value. Where a structure was tested more than once in an assay, its records may differ in their call.
# Assay: Total Fluorescence Counterscreen for Inhibitors of the Interaction of Thyroid Hormone Receptor and Steroid Receptor Coregulator 2
# Details: TRb/SRC2 Texas Red total fluorescence interference; series mostly up to 106 µM
# Summary of the method: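 Human TRβ ligand-binding domain (0.6 uM) and Texas Red SRC2 peptide (20 nM) in Tris buffer with 1 uM T3 and 5% DMSO were incubated with pinned compound for 5 hr at ambient temperature. Total fluorescence was computed as S + 2P (555/632 nm).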
# % is set by controls: 0 for no effect and ±100 for the full control effect; potency is the fitted concentration of half-maximal effect; tags give direction and shape of the fitted curve or compound fluorescence and quenching.
SMILES,Potency,"fluorescence change, negative = quenching"
Cc1ccc2occ(CC(=O)N(Cc3ccc(Cl)cc3)Cc3ccco3)c2c1,active: 0.355 µM [quencher],
O=C(CCS(=O)(=O)c1ccc(Br)s1)Nc1cc(C(F)(F)F)cc(C(F)(F)F)c1,"inconclusive: 0.0316 µM [falling, full curve, poor fit]",
C[C@H]1[C@@H](O)[C@@H](C)\C=C/C=C\C=C/C=C\C=C/C=C\C=C/[C@@H](O[C@H]2O[C@@H](C)[C@@H](O)[C@@H](N)[C@@H]2O)C[C@@H]2O[C@](O)(C[C@@H](O)C[C@@H](O)[C@@H](O)CC[C@@H](O)C[C@@H](O)CC(=O)O[C@H]1C)C[C@@H](O)[C@H]2C(=O)O (stereo in doubt),"inconclusive: 44.7 µM [falling, partial curve, poor fit]",
Cc1ccc(S(=O)(=O)Nc2cc(Cl)c3oc4c(c3c2)CCCC4)cc1,"inconclusive: 31.6 µM [falling, partial curve, poor fit]",
Cc1ccc(-c2nc3cccnc3s2)cc1NC(=O)Cc1ccccc1,active: 100 µM [quencher],
Cc1cccc(OCC(=O)Nc2ccc3nc(Nc4cccc(Cl)c4)cc(C)c3c2)c1,"inconclusive: 17.8 µM [quencher, full curve]",
COc1ccc(N2Cc3cccc(C(=O)NC(C)CCc4ccco4)c3C2=O)cc1 (stereo not drawn),inactive,
COc1ccccc1NC(=O)c1c(NC(=O)c2ccccc2Cl)sc2c1CCC2,"inconclusive: 0.0009 µM [falling, full curve, poor fit]",
O=C(Cc1ccc(Cl)cc1Cl)Nc1ccc(OC(F)F)c(Cl)c1,inactive,
Cc1ccc(N2CCN(C(=O)c3noc4c3COc3ccc(C)cc3-4)CC2)c(C)c1,"inconclusive: 100 µM [falling, partial curve, poor fit]",
CCCN(CCC)CC(O)Cn1cc(/C=C/C(=O)c2ccc(OCC)cc2)c2ccccc21 (stereo not drawn),inactive,
COc1cccc2c1NC(C(=O)O)C1CC=CC21 (stereo not drawn),"inconclusive: 39.8 µM [quencher, partial curve]",
CC(C)c1nn2c(=O)cc(COC(=O)CNC(=O)c3ccccc3)nc2s1,"inconclusive: 2.51 µM [quencher, full curve]",
O=C(Nc1ccccc1C(F)(F)F)N1CCN(c2ccc3nnc(-c4ccc(F)cc4)n3n2)CC1,"inconclusive: 20 µM [quencher, full curve]",
CC(C)(C)c1ccc(-c2nnc(SCCC#N)n2C2CCCC2)cc1,inactive,
O=C1c2ccccc2-c2onc3c(NCCO)cc(NC4CCCCC4)c1c23,active: 39.8 µM [fluorescent],
Cc1cc(=O)n(CC(=O)N2CCN(c3ccc(F)cc3)CC2)c2c1c(C)nn2C,"inconclusive: 20 µM [falling, full curve, poor fit]",
Cc1ccc(Cl)cc1NC(=O)CN1C(=O)C(C)(C)c2cc(S(=O)(=O)N3CCCCC3)ccc21,active: 0.0045 µM [quencher],
CSCC[C@H](NC(=O)c1cccc([N+](=O)[O-])c1C)c1nc2ccccc2[nH]1,"inconclusive: 7.08 µM [falling, full curve, poor fit]",
CC1=C(C(=O)Nc2ccc(C)cc2C)C(c2ccccc2F)n2nc(SCC(=O)c3ccc(C)cc3)nc2N1 (stereo not drawn),active: 0.0316 µM [quencher],
CCOC(=O)c1c(NC(=O)CSc2cn(CCNC(=O)c3ccccc3F)c3ccccc23)sc2c1CCCC2,"inconclusive: 11.2 µM [falling, full curve, poor fit]",

SMILES,Potency,"fluorescence change, negative = quenching"
CC(C)(C)OC(=O)N1CCC(c2c(C(=O)N3CCN(C(=O)c4ccco4)CC3)cnn2-c2ccccc2Cl)CC1,"inconclusive: 3980 µM [quencher, partial curve]",
Cc1ccc(-n2c(C)cc(/C=C3\NC(=O)NC3=O)c2C)c(C)c1,inactive,
COc1cc(-c2cc(OC)c3c(C)oc(C)c3c(=O)c2)ccc1OC(=O)c1cccc(Cl)c1,active: 501 µM [quencher],
COC(=O)/C=C1\SC(N2CCOCC2)=C(c2ccc(OC)cc2)C1=O,inactive,
CCCOc1cccc(C(=O)Nc2ccc(-c3cc4ccccc4oc3=O)c(C)c2)c1,"inconclusive: 0.141 µM [falling, full curve, poor fit]",
COc1ccc(C(=O)Nc2ccccc2-c2nc3ccccc3s2)c(OC)c1,"inconclusive: 0.0009 µM [falling, full curve, poor fit]",
CCCCOc1ccccc1C(=O)Nc1onc2c1CCCC2,"inconclusive: 56.2 µM [quencher, partial curve]",
COc1ccc(CNC(=O)CCc2c(C)c3cc4c(C)coc4cc3oc2=O)cc1,inactive,
Oc1ccc2ccccc2c1/C=N/c1nc2c(s1)CCCC2,inactive,
COc1cccc(/C=C2/SC(=S)N(CC(=O)Nc3nnc(C)s3)C2=O)c1,inactive,
CSc1ccc(CCNc2ncnc3onc(-c4ccc(Cl)cc4)c23)cc1,"inconclusive: 0.0794 µM [falling, full curve, poor fit]",
Cc1ccc(NC(=O)Cn2c(=O)n(CCC(=O)NCc3ccccc3Cl)c(=O)c3ccccc32)c(C)c1,"inconclusive: 14.1 µM [falling, full curve, poor fit]",
CO[C@H]1COC(=O)[C@@H](C)COC(=O)[C@@H](COCc2ccccc2)NC(=O)C/C=C\[C@H]1C,,inactive: 0.489% [at 11.2 µM]
COc1cc(C2C(C(=O)Nc3ccc(C)cc3C)=C(C)Nc3nc(SCc4ccccc4)nn32)cc(OC)c1OC (stereo not drawn),"inconclusive: 20 µM [quencher, partial curve]",
CCn1c(=NC(=O)c2ccc(N3C(=O)CCC3=O)cc2)sc2c(OC)ccc(OC)c21,"inconclusive: 39.8 µM [quencher, partial curve]",
CC(C)Sc1ncc(Cl)c(C(=O)Nc2c(C(=O)Nc3ccccc3)oc3ccccc23)n1,inactive,
COc1ccc(Nc2ccccc2N)cc1,"inconclusive: 14.1 µM [fluorescent, full curve]",
O=[N+]([O-])c1ccc(N/N=C/c2ccc(O)c(O)c2O)c(S(=O)(=O)N2CCOCC2)c1,"inconclusive: 44.7 µM [quencher, partial curve]",
COC(=O)c1c(C)sc(-c2c(-c3ccc(F)cc3)[nH]c3[nH]c(=O)[nH]c(=O)c23)c1O,"inconclusive: 12.6 µM [quencher, full curve]",
COc1cccc(CNCCCSc2nnnn2C)c1,active: 1000 µM [quencher],
O=C(Nc1cccc(C(F)(F)F)c1)c1cc2nc(-c3ccccc3)cc(C(F)(F)F)n2n1,"inconclusive: 4.47 µM [falling, full curve, poor fit]",

SMILES,Potency,"fluorescence change, negative = quenching"
O=C(Cc1ccc(-n2c(=O)[nH]c3ccccc3c2=O)cc1)N1CCN(c2ccccc2)CC1,inactive,
O=C(CCCn1c(=O)c2cccn2c2ccccc21)Nc1cccc(Cl)c1,"inconclusive: 0.0028 µM [falling, full curve, poor fit]",
CCc1cccc(CC)c1N(COC)C(=O)Cn1c(C)nc2ccccc21,"inconclusive: 50.1 µM [falling, partial curve, poor fit]",
CCOC(=O)c1ccc(NC(=O)CSc2nc(C)c(Cc3ccccc3)c(=O)[nH]2)cc1,"inconclusive: 8.91 µM [quencher, full curve]",
CCN1/C(=C/c2ccc3cc(C)ccc3[n+]2C)Sc2ccc3sccc3c21,inactive,
O=C(Nc1ccc(Cl)c(S(=O)(=O)Nc2ccccc2Cl)c1)c1cccs1,inactive,
CCN(CCCNC(=O)CSc1cc(=O)n(C)c2cc(Cl)ccc12)c1ccccc1,inactive,
COc1ccc(C(=O)N/N=C/c2ccc(OC)c(CN3CCCc4ccccc43)c2)cc1,inactive,
C=CCNC(=S)Nc1cc(S(=O)(=O)N2CCOCC2)ccc1-n1cncn1,"inconclusive: 501 µM [falling, partial curve, poor fit]",
Cc1cccc(CSc2nc3ccncc3n2Cc2ccc(C(=O)O)cc2)c1,"inconclusive: 15.8 µM [quencher, full curve]",
O=C1C=CC2=C3c4cc(O)c(O)cc4CC3(O)COC2=C1O (stereo not drawn),"inconclusive: 44.7 µM [quencher, partial curve] and inconclusive: 25.1 µM [quencher, full curve]",
COC(=O)c1cc(OC)c(OC)c(OC)c1NC(=O)c1cc(=O)n(C)c(=O)n1C,"inconclusive: 20 µM [quencher, full curve]",
COCCCNC(=O)CN1C(=O)COc2ccc(S(=O)(=O)N3CCOCC3)cc21,"inconclusive: 2 µM [falling, full curve, poor fit]",
CC(C)[C@H](NC(=O)OCc1ccccc1)C(=O)N[C@H](C=O)Cc1ccccc1,"inconclusive: 1.58 µM [falling, full curve, poor fit]",
N[C@H](Cc1ccc(O)c(O)c1)C(=O)O,inactive and active: 28.2 µM [quencher],
CCNc1ccc2noc3c2c1C(=O)c1ccccc1-3,active: 44.7 µM [fluorescent],
O=C(NCCS(=O)(=O)N1CCN(c2ccccc2F)CC1)c1ccccc1C(F)(F)F,"inconclusive: 10 µM [falling, full curve, poor fit]",
CC1CCC2C(=O)N3C(CCC(C)[C@H]3c3cccc(N4CCCC4=O)c3)C(=O)N2C1c1cccc(N2CCCC2=O)c1 (stereo partly drawn),,inactive: -42.3% [at 11.2 µM]
CC(C)CSC1=NSC2=NC(=O)/C(=C\c3ccccc3)C(=N)N12,inactive,
CC1CCc2c(sc3nc(-c4cc5ccccc5oc4=O)nc(Cl)c23)C1 (stereo not drawn),active: 31.6 µM [quencher],
O=C(CCNc1cccc(F)c1)c1cccc([N+](=O)[O-])c1,inactive,
